Among all 310,000 compounds or so, about 2,200 (0.71%) showed an effect of 50% or more. Effects have a minus sign here. The list shows a part of the results.
Molecular target: human ether-à-go-go-related gene (hERG) potassium channel (human, UniProt Q12809)
Assay: primary screen, population patch clamp on CHO cells stably expressing hERG

Sequence of human ether-à-go-go-related gene (hERG) potassium channel (Q12809 whole entry, looked up): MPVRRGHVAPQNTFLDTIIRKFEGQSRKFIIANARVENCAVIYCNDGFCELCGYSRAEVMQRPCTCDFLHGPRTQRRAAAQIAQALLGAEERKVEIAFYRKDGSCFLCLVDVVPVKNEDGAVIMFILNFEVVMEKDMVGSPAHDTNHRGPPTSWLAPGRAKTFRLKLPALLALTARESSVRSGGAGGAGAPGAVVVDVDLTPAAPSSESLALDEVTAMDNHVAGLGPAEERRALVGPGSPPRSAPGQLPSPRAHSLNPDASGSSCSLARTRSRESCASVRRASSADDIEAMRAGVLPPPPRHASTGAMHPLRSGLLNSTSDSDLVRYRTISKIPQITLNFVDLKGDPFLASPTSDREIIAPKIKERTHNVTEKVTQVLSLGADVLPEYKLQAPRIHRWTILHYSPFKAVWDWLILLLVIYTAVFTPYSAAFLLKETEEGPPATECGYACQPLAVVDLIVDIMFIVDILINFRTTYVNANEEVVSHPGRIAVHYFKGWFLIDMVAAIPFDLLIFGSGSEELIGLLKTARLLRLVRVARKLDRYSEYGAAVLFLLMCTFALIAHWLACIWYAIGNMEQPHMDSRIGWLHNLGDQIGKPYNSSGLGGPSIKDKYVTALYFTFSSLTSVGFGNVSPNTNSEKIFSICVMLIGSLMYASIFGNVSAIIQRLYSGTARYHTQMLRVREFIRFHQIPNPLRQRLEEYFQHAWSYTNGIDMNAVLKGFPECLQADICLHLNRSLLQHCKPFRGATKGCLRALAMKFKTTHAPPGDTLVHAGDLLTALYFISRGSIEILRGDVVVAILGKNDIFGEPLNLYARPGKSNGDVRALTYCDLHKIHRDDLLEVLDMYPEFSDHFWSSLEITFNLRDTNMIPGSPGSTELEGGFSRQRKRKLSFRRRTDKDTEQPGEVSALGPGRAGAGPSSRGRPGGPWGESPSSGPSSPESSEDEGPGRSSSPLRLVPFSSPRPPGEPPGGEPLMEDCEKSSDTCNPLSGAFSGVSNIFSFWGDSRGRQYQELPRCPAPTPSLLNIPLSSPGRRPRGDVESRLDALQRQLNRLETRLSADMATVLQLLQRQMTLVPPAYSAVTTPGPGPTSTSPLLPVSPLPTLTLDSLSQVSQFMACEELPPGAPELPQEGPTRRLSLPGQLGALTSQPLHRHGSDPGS

Row | SMILES | hERG current change (%, negative = inhibition) at 1uM
1 | CCCCOc1ccc(-c2c(C#N)c(N)nc(SCC(N)=O)c2C#N)cc1 | 2.33%
2 | CN(C)c1ccc(CN2CCCC(O)C2)cc1 (centres unmarked) | 12.8%
3 | O=C(Nc1ccc2c(c1)OCCO2)NC12CC3CC(CC(C3)C1)C2 | 16.9%
4 | Cc1nc(Nc2ccc3c(c2)OCO3)c2oc3ccccc3c2n1 | 7.66%
5 | C/C(Cn1cnc([N+](=O)[O-])n1)=N\NC(=O)c1cccc(F)c1 | 7.2%
6 | CCc1cccc(NC(=O)c2ccc(Cn3nc(C)cc3C)o2)c1 | -4.64%
7 | Cc1ccc(NC(=S)Nc2ccc(OC(F)F)c(Cl)c2)cc1Cl | 12.6%
8 | O=C(Cn1nc(C(F)(F)F)c2c1CCC2)N1CCN(c2ccccc2)CC1 | -1.5%
9 | Cc1ccc(C)n1-c1nn(S(=O)(=O)c2cccc(C(F)(F)F)c2)c2cccc(F)c12 | -11.3%
10 | COc1cc(NC(=O)CN(C)S(=O)(=O)c2ccc(C)cc2)cc(OC)c1 | 4.72%
11 | C#C[C@]1(OC(C)=O)CCC2C3CCC4=CC(=O)CC[C@@H]4C3CC[C@@]21C (some centres unmarked) | 9.24%
12 | CCN1CCn2c3c(c4cc(Cl)ccc42)CCCC31.Cl (centres unmarked) | -5.19%
13 | CC(/C=N\N1CCN(Cc2ccc(C)cc2)CC1)=C\c1ccccc1 | 14%
14 | CCOc1ccc(NC(=S)N(CCc2c(C)[nH]c3ccccc23)Cc2cccnc2)cc1 | -4.48%
15 | CCN=C1S/C(=C\c2cc(OCC)c(O)cc2Br)C(=O)N1CC | 9.89%
16 | Cc1ccc(CNn2cn[nH]c2=S)cc1 | 4.25%
17 | CCc1ccc(OCC(O)CN2CCN(c3ccccc3)CC2)cc1.Cl (centres unmarked) | -23%
18 | CCc1cccc(C)c1NC(=O)COC(=O)Cn1c(C)csc1=O | 14.1%
19 | CCOC(=O)c1[nH]n(-c2ccc(Cl)cc2)c(=O)c1C | 0.0081%

Row | SMILES | hERG current change (%, negative = inhibition) at 1uM
20 | CC(=O)C1=C(c2ccccc2)NC(=O)NC1c1cccs1 (centres unmarked) | 17.9%
21 | Cc1c(N2C(=O)/C(=C/c3cccc4ccccc34)SC2=S)c(=O)n(-c2ccccc2)n1C | 7.42%
22 | Fc1ccc(/C=C/c2nnc(-c3cccs3)o2)cc1 | 15.8%
23 | COc1ccccc1N(C)S(=O)(=O)c1ccc(C(=O)OCC(=O)c2c[nH]c3ccccc23)cc1 | 19.9%
24 | Cc1ccc(NS(=O)(=O)c2ccc3[nH]c(=O)sc3c2)cc1 | 12.9%
25 | COc1ccccc1N(CCC#N)C(=O)CSc1nc(-c2ccccc2)cn1N | 7.72%
26 | CC(=O)Nc1ccc(S(=O)(=O)NC(C(=O)O)C2=CCC=CC2)cc1 (centres unmarked) | 15.9%
27 | CC1=NN2C(=N)/C(=C\c3cc(C)n(-c4cccc(C)c4)c3C)C(=O)N=C2S1 | 12%
28 | Fc1ccc(CNCCC(Cc2ccccc2)c2ccco2)cc1 (centres unmarked) | -4.42%
29 | O=C(COC(=O)/C=C/c1cccs1)Nc1ccc(F)cc1 | 3.94%
30 | CC(=O)Oc1ccc(C(=O)Nc2ccc(S(=O)(=O)NCC3CCCO3)cc2)cc1 (centres unmarked) | 13.6%
31 | N#Cc1c(N2CCN(C(=O)c3ccccc3Cl)CC2)nc(-c2ccccc2)c2c1CCCC2 | 17.8%
32 | CCC(C)NC(=O)CC(NS(=O)(=O)c1ccc(NC(C)=O)cc1)C(C)C (centres unmarked) | 14.2%
33 | CCCS(=O)(=O)N1CCN(Cc2c[nH]c3ccccc23)CC1.O=C(O)C(=O)O | -3.9%
34 | O=c1[nH]cnc2scc(-c3ccsc3)c12 | 2.11%
35 | COc1ccc(/C=C/C(=O)NCCOc2ccccc2OC)cc1 | 18.5%
36 | CCCn1nnnc1SCC(=O)N(C(C)C)C(C)C | 1.69%
37 | Cc1c(C)c2ccc(OCC(=O)N3CCN(c4ccc(F)cc4)CC3)c(C)c2oc1=O | 15.5%
38 | Cc1cc2nc(CCN(C(=S)NCC3CCCO3)C3CCCC3)[nH]c2cc1C (centres unmarked) | -7.89%

Row | SMILES | hERG current change (%, negative = inhibition) at 1uM
39 | c1ccc(SCc2nc(-c3cccnc3)no2)cc1 | 10.3%
40 | O=C(COc1cc2oc(=O)c3c(c2cc1Cl)CCC3)Nc1cccnc1 | 14%
41 | COc1ccc(/C=N/n2cnc3c([nH]c4ccc(C)cc43)c2=O)cc1CN1CCCC1 | -12.7%
42 | CCN(CC)S(=O)(=O)c1cccc(C(=O)N/N=C/c2cccc(O)c2O)c1 | 10.2%
43 | COc1ccc(-c2ccnc(-c3ccc(OCCCF)cc3)n2)cc1 | 4.03%
44 | Nc1ccc(C(=O)N2CCN(S(=O)(=O)c3ccc4c(c3)OCCCO4)CC2)cc1[N+](=O)[O-] | 5.54%
45 | COc1ccc(N(CC(=O)N2CCC(Cc3ccccc3)CC2)S(C)(=O)=O)cc1 | 4.91%
46 | COc1cccc(/C=C/C(=O)OCC(=O)N2c3ccccc3NC(=O)C2(C)C)c1 | -4.44%
47 | Cc1c(CCO)c(=O)[nH]n1S(=O)(=O)c1ccc([N+](=O)[O-])cc1 | 10.2%
48 | Nc1c(C(=O)c2ccccc2O)cnn1-c1ccc(S(=O)(=O)N2CCOCC2)cc1[N+](=O)[O-] | 14.4%
49 | Cc1ccc(C2(C)NC(=O)N(CC(=O)Nc3ccc4[nH]c(=O)[nH]c4c3)C2=O)cc1 (centres unmarked) | -0.309%
50 | CCC1CCC2(CC1)NC(CO)(CO)CO2 (centres unmarked) | 7.62%
51 | COc1ccccc1Nc1nnc(SC(C)C(=O)NC2CC2)s1 (centres unmarked) | -9.37%
52 | CC(=O)N1CCc2cc(S(=O)(=O)NCCC(=O)NC3CCN(Cc4ccccc4)CC3)ccc21 | 14%
53 | Cc1cc(C)c(S(=O)(=O)n2cnc3ccccc32)c(C)c1 | 14%
54 | CCc1ccc(C(=O)/C=C2\Sc3ccccc3NC2=O)cc1 | 4.81%
55 | COc1cccc(C(=O)Nc2nnc(-c3ccc(Cl)cc3)o2)c1 | 8.97%
56 | Cc1cccc2sc(N(CCCN(C)C)C(=O)COc3ccc(Cl)cc3)nc12.Cl | -6.98%

Reference: article PMC4336329 (PLoS ONE, 2015)
